From the supplement of paper PMC10126150
Sequences with one replicate were seen in a single cluster, so their values are uncertain.
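Note: ATP exposure 15 min at 22 °C before imaging.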

What follows are sequences tested on ATP (assay: switch fluorescence ratio, 500 uM ATP over buffer (Cy3 cluster intensity, sum of 5 cycles each) (fold (ratio)); higher = stronger signal-on switching upon ATP binding; sequences stand for … in TCGTCGGCAGCGTCAGATGTGTATAAGAGACAGTTTTTTTTTTTTTTTTTTTTTTTTT…TC). Settings: aptamer strand: ATP DNA aptamer (quencher-CACCTGGGGGAGTATTGCGGAGGAAGG + anchor), 100 nM annealed; ATP concentration: 500 uM; one replicate.
Outline: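 Cy3-labelled switching-strand clusters on a modified Illumina MiSeq flow-cell were annealed to 100 nM quencher-labelled ATP aptamer, imaged in selection buffer, then imaged after 15 min with 500 uM ATP at 22 °C. Five buffer/ATP cycles ran, with NaOH stripping and re-annealing between them. The fluorescence ratio is summed target-cycle over summed buffer-cycle Cy3 intensity per cluster, averaged per switch-domain sequence. Clusters outside 100-1000 RFU were excluded.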
ATTCTTGGGC gave a switch fluorescence ratio of 1.06.
GAAAACAGCC gave a switch fluorescence ratio of 1.06.
In the case of TCGCCGAGAT, the switch fluorescence ratio is reported as 2.03.
Sequence ACTCGGGATG has a switch fluorescence ratio of 1.06.
With GGTAGATTAG the switch fluorescence ratio was 0.961.
Sequence GCAGTTGCAA has a switch fluorescence ratio of 0.988.
TAGGTTCAGG gave a switch fluorescence ratio of 1.02.
For AATTTGACCG, the switch fluorescence ratio was 1.
Work on CCGCGCGGGG yielded a switch fluorescence ratio of 1.01.
ACCGAGGTG gave a switch fluorescence ratio of 1.2.
AAGGTGATAT gave a switch fluorescence ratio of 1.06.
CGGATTTTCG was tested, and the switch fluorescence ratio was 1.04.
In the case of TTATGTTTTC, the switch fluorescence ratio is reported as 1.47.
GCCCTTAGCC was tested, and the switch fluorescence ratio was 1.03.
For GCTTAACG, the switch fluorescence ratio was 0.985.
Work on GGGACATGCT yielded a switch fluorescence ratio of 0.982.
With CTCCGCGGCG the switch fluorescence ratio was 2.84.
AATAATTTAG showed a switch fluorescence ratio of 0.974.
For GACGTAGTTC, the switch fluorescence ratio was 1.01.
For ATGAGGTTAA, the switch fluorescence ratio was 1.05.
Work on GAAGTTTAGT yielded a switch fluorescence ratio of 0.996.
Work on TCGCTTGA yielded a switch fluorescence ratio of 1.04.
In the case of GCCTCTTCAT, the switch fluorescence ratio is reported as 0.996.
Work on TTACGATGAA yielded a switch fluorescence ratio of 1.04.
Sequence CTTAGGACAC has a switch fluorescence ratio of 0.982.
TGGTCCATTG gave a switch fluorescence ratio of 0.994.
With AGGCGGGTTT the switch fluorescence ratio was 0.976.
CTGACTGCTC was tested, and the switch fluorescence ratio was 2.04.
For GGCTAAATGA, the switch fluorescence ratio was 0.975.
Work on AGTTTGATTA yielded a switch fluorescence ratio of 1.03.
With GCGCTGCGAC the switch fluorescence ratio was 1.29.
In the case of ACTAAAACTA, the switch fluorescence ratio is reported as 1.13.
GAGGAGACTA showed a switch fluorescence ratio of 0.963.
Sequence TGGGCTGGAC has a switch fluorescence ratio of 1.63.
Sequence AGAGATGCGT has a switch fluorescence ratio of 0.969.
AATCTACCCG gave a switch fluorescence ratio of 1.03.
CGCCTCTGG showed a switch fluorescence ratio of 1.05.
GGTGGGGATC was tested, and the switch fluorescence ratio was 0.978.
CTCTCATAAA was tested, and the switch fluorescence ratio was 1.13.
ACCTCGCCTC gave a switch fluorescence ratio of 1.47.
Sequence TATGAACAGG has a switch fluorescence ratio of 1.05.
TCATTCTACG gave a switch fluorescence ratio of 1.06.
With TTCGGCAGGG the switch fluorescence ratio was 0.984.
Work on TGGCGTGACT yielded a switch fluorescence ratio of 0.951.
ATCATTTTCA showed a switch fluorescence ratio of 1.03.
With CCAAACTGCA the switch fluorescence ratio was 1.15.
With TTTCAGGCAA the switch fluorescence ratio was 1.24.
With CCTTTCGTCT the switch fluorescence ratio was 1.04.
For CGCCGCGGTT, the switch fluorescence ratio was 1.05.
For GGCTATACTG, the switch fluorescence ratio was 1.07.
CAGTTATGGG showed a switch fluorescence ratio of 0.981.
With CGAAGTTGGA the switch fluorescence ratio was 0.942.
Work on AAATTTGTT yielded a switch fluorescence ratio of 0.976.
AGTCTGGGGT gave a switch fluorescence ratio of 0.975.
CGCCTGCATG gave a switch fluorescence ratio of 1.2.
With GTGGCCCCCA the switch fluorescence ratio was 1.01.
With CGCACTGTCG the switch fluorescence ratio was 0.963.
In the case of GATTTCGATC, the switch fluorescence ratio is reported as 0.93.
For CGGTGTATAT, the switch fluorescence ratio was 1.
With CGAAAGTTAG the switch fluorescence ratio was 0.983.
CCGGCTTGTG gave a switch fluorescence ratio of 1.03.
Work on CGGATCACTG yielded a switch fluorescence ratio of 0.98.
In the case of GGAGTCAAAA, the switch fluorescence ratio is reported as 1.02.
For AATGATGTCT, the switch fluorescence ratio was 0.99.
With TCTACAAAGA the switch fluorescence ratio was 0.993.
Work on GATAATCCCG yielded a switch fluorescence ratio of 1.04.
Sequence CGGTGGTTAG has a switch fluorescence ratio of 1.02.
With AGCAAATCCC the switch fluorescence ratio was 1.82.
CATTATCTGA showed a switch fluorescence ratio of 1.02.
CGGGGTGATT showed a switch fluorescence ratio of 0.992.
For AGTTAATCTC, the switch fluorescence ratio was 1.02.
TGGAACGAGC gave a switch fluorescence ratio of 0.987.
Work on GCGCATAGCG yielded a switch fluorescence ratio of 1.04.
For TGTTTGAGTC, the switch fluorescence ratio was 1.02.
Sequence TCCTTAATAT has a switch fluorescence ratio of 1.05.
Sequence CAGGGCGAGG has a switch fluorescence ratio of 1.01.
Work on TAGCATCGAC yielded a switch fluorescence ratio of 1.26.
CATTGGGGTG was tested, and the switch fluorescence ratio was 1.02.
In the case of ATACTAGCAT, the switch fluorescence ratio is reported as 1.06.
Sequence GAGGGATTT has a switch fluorescence ratio of 0.957.
For GAATTTGTCA, the switch fluorescence ratio was 0.958.
AGAATGTACT was tested, and the switch fluorescence ratio was 1.
Work on AGCTGTTGCG yielded a switch fluorescence ratio of 0.982.
TTTCACGCAT was tested, and the switch fluorescence ratio was 3.63.
TTCCCTACCT gave a switch fluorescence ratio of 1.31.
TAGTGACACA gave a switch fluorescence ratio of 0.974.
CGTGCCTGT was tested, and the switch fluorescence ratio was 1.07.
ACATGGGCTG was tested, and the switch fluorescence ratio was 1.07.
In the case of TGGTGGCTGC, the switch fluorescence ratio is reported as 0.975.
GCGCAGATGG showed a switch fluorescence ratio of 1.16.
GGTACCCTTA was tested, and the switch fluorescence ratio was 1.05.
Sequence CTTTAACTCG has a switch fluorescence ratio of 1.
With ACTCGAGGAG the switch fluorescence ratio was 0.97.
In the case of GTCGAGCATA, the switch fluorescence ratio is reported as 1.13.
GATATCCGGC was tested, and the switch fluorescence ratio was 0.948.
Sequence TCGGATGTAA has a switch fluorescence ratio of 1.04.
Sequence TAACCAAAAA has a switch fluorescence ratio of 1.04.
Sequence ATGGTCTAA has a switch fluorescence ratio of 0.998.
TGCAAATAGT gave a switch fluorescence ratio of 1.01.
AAGCTTCGGC was tested, and the switch fluorescence ratio was 1.09.
